Test results published in the supplement of paper PMC3334620.
Whole data set: some 33,000 sequences, median “E-score (-0.5 to 0.5)” near -0.032, cut for the highest 2% near 0.36. Some of the results follow.

The sequences below were run against T1, Sko1 (UniProt Q02100) (assay: PBM E-score (8-mer binding enrichment) (E-score (-0.5 to 0.5)); higher = stronger / more preferred TF binding; most listed sequences are background and not binding sites). Settings: protein concentration: 200 nM; construct: GST-full length.
T1 sequence: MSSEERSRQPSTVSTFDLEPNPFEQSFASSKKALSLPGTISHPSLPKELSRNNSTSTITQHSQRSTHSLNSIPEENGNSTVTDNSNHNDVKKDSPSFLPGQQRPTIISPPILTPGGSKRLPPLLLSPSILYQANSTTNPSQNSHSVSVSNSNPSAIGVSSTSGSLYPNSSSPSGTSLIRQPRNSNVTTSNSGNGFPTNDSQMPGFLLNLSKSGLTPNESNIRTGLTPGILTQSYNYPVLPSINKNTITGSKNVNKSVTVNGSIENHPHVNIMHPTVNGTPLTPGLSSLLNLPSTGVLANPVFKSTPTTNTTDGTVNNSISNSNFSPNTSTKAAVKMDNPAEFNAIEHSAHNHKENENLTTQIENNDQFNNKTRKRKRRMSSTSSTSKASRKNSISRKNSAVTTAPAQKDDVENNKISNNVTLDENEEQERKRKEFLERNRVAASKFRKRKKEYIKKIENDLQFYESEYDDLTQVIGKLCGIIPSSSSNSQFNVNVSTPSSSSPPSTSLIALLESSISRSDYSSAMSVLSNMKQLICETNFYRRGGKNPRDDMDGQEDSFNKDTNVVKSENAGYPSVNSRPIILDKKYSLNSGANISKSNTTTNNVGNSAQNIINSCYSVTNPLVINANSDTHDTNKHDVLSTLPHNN
Method in brief: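 Full-length yeast transcription factors or their DNA-binding domains, GST-tagged and expressed with PURExpress, were applied at about 100-200 nM to universal all-10-mer Agilent arrays. These arrays had been made double-stranded by primer extension on fresh or once-stripped slides. Detection used fluorescent anti-GST, normalisation used masliner, and E-scores for ungapped eight-base words pooled with reverse complements came from the Universal PBM Analysis Suite.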

Sequence	PBM E-score
ACCGGGGG	-0.247
GTCCTAAA	0.144
ATTAAATC	0.118
ATTGATTA	0.181
GTATAATA	0.213
GTGTACAC	0.122
TACAGGCA	0.083
CGTGTTAC	0.186
AGGGCATA	-0.00767
AGATCATG	0.199
ACGCCGGG	-0.267
ACCCAGCT	-0.356
GACGTAGA	0.42
CAATGTAG	-0.215
AGGTCACC	-0.128
AGCCAGAG	-0.262
AATAATAC	0.214
CCTGTCTC	-0.354
AAGTGCAC	-0.0109
ACACGCTA	-0.00511
GCGACTTA	-0.0438
CTCCGTAC	-0.153
CGATAAAG	0.0438
AGTCATGA	0.0664
TATCAGGA	0.066

Sequence	PBM E-score
ACAGGTAC	0.0509
CAAACATC	0.115
AAATAGTT	0.0866
AACGCGCC	-0.14
CCCATTGC	-0.189
GCGGACGC	-0.0227
CTCGACTC	-0.273
ACCTACAA	0.22
GAAATTCC	-0.11
ATGGTAAG	-0.145
CACCCTAA	0.0798
GCGCTCAA	-0.187
CATTCTGA	-0.0118
GGATGGAC	-0.181
ACAGTTCA	0.13
CGCCTCCA	-0.144
ATCACTGC	0.118
GTCTGTAA	-0.0738
GAACGATC	0.0123
TCACTGGA	-0.0849
CTACCCGC	-0.212
CCTCCCGA	-0.191
AACCATGC	-0.0424
AGTTAAAC	0.23
ACGGCCAG	-0.237

Sequence	PBM E-score
AAAGTCAA	-0.0312
GCTCTGAC	0.0572
CCGGAACA	-0.076
ACCACATG	0.0825
GGCCCAAC	-0.146
TAAATGAA	0.00474
ACTTAGGC	-0.209
ACCCCGTC	-0.289
CTGCCAAC	-0.208
CCCGGAGG	-0.324
CACTCTAG	-0.0141
GATCACAC	-0.0314
AGGGTTTC	-0.247
GCTGTCAC	-0.108
CGGTTCCA	-0.211
AGAACGGG	-0.124
CTGAAAAA	-0.00669
CCTTATTC	-0.0963
ACAACGTA	0.416
ACACCGCC	-0.255
CGGCCCCG	-0.266
AGGGTTAC	0.0177
AAATCAAT	0.113
GCAGGCAA	0.0424
CTATCTAA	0.0229

Sequence	PBM E-score
CAACCGCG	0.173
AACAAGAT	-0.0255
CGATGCAC	-0.0249
AGTCCAGG	-0.276
ATAGGAGA	0.0294
GGCCGTAA	-0.148
AGCTAGAT	0.0295
CCCCTTGA	-0.226
TAGGTTCA	-0.0685
ATCCACAC	-0.117
TACTTCCA	0.0806
CGTCGGTC	0.164
AAGTGTCG	0.00605
ACTAATCG	-0.0228
CGCGCTAG	-0.081
GAGCACGA	-0.103
GATGATCA	0.0279
GCCATACA	0.0456
ACTAGGGG	-0.396
TGCCTACA	0.0278
GTGGTTAA	0.205
GCGGGGAC	-0.124
CGTCGTGC	0.252
AGGTATAA	0.113
AATGTAAA	0.212

Sequence	PBM E-score
GTTAGCTA	-0.089
GCAGACAC	-0.0387
ATCAAATG	0.0548
CCGGAATA	-0.219
GTTAAGCA	0.0113
AGAATGCA	-0.077
CGGCATGC	-0.133
ACCTATCA	-0.0258
CACGGCGG	-0.156
CTATACGA	0.178
ACCTAGTA	-0.121
AAGATAAG	0.094
TTCTGCAA	0.101
ATATGCTC	-0.0515
ATACGCAT	0.375
CCTGGTCA	-0.302
AAGGCCCA	-0.201
AGATCGTG	-0.0762
CACGCATG	0.112
AATCATCT	0.0757
CATACCGA	0.0409
CCCCCAGC	-0.26
AAGACTTA	0.1
AACCGAAA	0.0754
AGTCTGCC	-0.276

Sequence	PBM E-score
AGACCTGC	-0.219
GGTCCCAA	-0.28
CGACTGGA	-0.12
AAGCAGGA	-0.0742
CCATATGG	-0.164
TCTGCCAA	-0.00328
GGCCTTAA	-0.037
AGACGATA	0.203
AATGCGGA	-0.0239
TACCGGTA	-0.219
GGGCTGTA	-0.267
ATGTGACC	-0.0234
ATGAGAGA	-0.0294
CTGAGTCA	-0.144
AACCAAGT	0.0302
ACAGTAAC	0.0433
GGCACGCA	-0.00979
CCCCTAGC	-0.318
CACTGCTA	-0.0848
ACGCGGGG	-0.0423
AACTAGTG	-0.0641
CGTCCGAG	-0.0998
AGACCTAG	-0.163
CAATCCTA	-0.0963
AGTCGGGG	-0.234

Sequence	PBM E-score
GGCTGACC	-0.264
ATAGGCGA	-0.138
CGTTAGTA	0.223
GATAACCA	0.0246
CGGTCTAC	-0.118
AACAATCG	-0.0271
TCGGAGAA	-0.123
CGACGAGC	-0.187
ACTGGGGC	-0.259
CCTTAAGC	-0.259
AGGACATG	-0.0582
TCGAGCAA	-0.0374
CGGACTTA	-0.227
GCAGGCGA	-0.131
GACAGGTC	-0.272
CAGCGTTA	0.0932
TAAATAAA	0.288
ACTAAGTA	0.0919
AGGTATGC	0.118
AAGGGCGC	-0.15
CCGGCCAC	-0.334
CATCTACC	-0.142
